Measured values taken from publication PMC12820563.
The other results are listed elsewhere or left out. The list includes weakly bound sequences.

target: T1, MBP-FoxP3dN (UniProt Q99JB6); assay: PD-seq (MBP pull-down with sequencing); settings: 20 mM Tris-HCl pH 7.5, 100 mM NaCl, 1.5 mM MgCl2, 0.4 uM protein, 0.1 uM dsDNA library, 30 min, room temperature, amylose pull-down; high values mean tight binding; double strand, one strand shown
T1 sequence: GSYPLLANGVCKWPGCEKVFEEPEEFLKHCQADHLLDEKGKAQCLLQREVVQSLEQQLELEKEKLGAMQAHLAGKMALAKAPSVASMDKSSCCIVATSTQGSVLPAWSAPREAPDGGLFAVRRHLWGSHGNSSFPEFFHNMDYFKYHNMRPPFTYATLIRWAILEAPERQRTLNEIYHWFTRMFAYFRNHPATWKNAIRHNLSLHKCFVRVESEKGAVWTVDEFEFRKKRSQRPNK

| Sequence | binding signal (RPM ratio (pull-down/input)) |
| --- | --- |
| GATGATTGTTCTCCCAGCTGATGAATTCTGTCAGTCGAGTAAACAAATTTTCCTAATCTTTCTGTTCAAGCGCCATCTAC | 0.9 |
| GATGATTGTTCTCCCAGCTGATGAATTTTTCCTGTCGAGTAAACAAATTTTCCTAATCTTTCTGTTCAAGCGCCATCTAC | 0.176 |
| GATGATTGTTCTCCCAGCTGATGAATTTATCCGCTCGAGTAAACAAATTTTCCTAATCTTTCTGTTCAAGCGCCATCTAC | 0.431 |
| GATGATTGTTCTCCCAGCTGATGAATTTTGGCTATCGAGTAAACAAATTTTCCTAATCTTTCTGTTCAAGCGCCATCTAC | 0.739 |
| GATGATTGTTCTCCCAGCTGATGAATTAACGTCTTCGAGTAAACAAATTTTCCTAATCTTTCTGTTCAAGCGCCATCTAC | 0.489 |
| GATGATTGTTCTCCCAGCTGATGAATTAACACGTTCGAGTAAACAAATTTTCCTAATCTTTCTGTTCAAGCGCCATCTAC | 0.46 |
| GATGATTGTTCTCCCAGCTGATGAATTAGCGCGCTCGAGTAAACAAATTTTCCTAATCTTTCTGTTCAAGCGCCATCTAC | 0.591 |
| GATGATTGTTCTCCCAGCTGATGAATTGAGAACATCGAGTAAACAAATTTTCCTAATCTTTCTGTTCAAGCGCCATCTAC | 0.365 |
| GATGATTGTTCTCCCAGCTGATGAATTGTGCGACTCGAGTAAACAAATTTTCCTAATCTTTCTGTTCAAGCGCCATCTAC | 3.56 |
| GATGATTGTTCTCCCAGCTGATGAATTTTCTTAATCGAGTAAACAAATTTTCCTAATCTTTCTGTTCAAGCGCCATCTAC | 0.19 |
| GATGATTGTTCTCCCAGCTGATGAATTACTAGGCTCGAGTAAACAAATTTTCCTAATCTTTCTGTTCAAGCGCCATCTAC | 0.319 |
| GATGATTGTTCTCCCAGCTGATGAATTTCTCGTTTCGAGTAAACAAATTTTCCTAATCTTTCTGTTCAAGCGCCATCTAC | 0.318 |
| GATGATTGTTCTCCCAGCTGATGAATTACACCATTCGAGTAAACAAATTTTCCTAATCTTTCTGTTCAAGCGCCATCTAC | 0.724 |
| GATGATTGTTCTCCCAGCTGATGAATTATTTGGGTCGAGTAAACAAATTTTCCTAATCTTTCTGTTCAAGCGCCATCTAC | 0.971 |
| GATGATTGTTCTCCCAGCTGATGAATTGCGATCCTCGAGTAAACAAATTTTCCTAATCTTTCTGTTCAAGCGCCATCTAC | 0.843 |
| GATGATTGTTCTCCCAGCTGATGAATTAAGTAGTTCGAGTAAACAAATTTTCCTAATCTTTCTGTTCAAGCGCCATCTAC | 1.11 |

| Sequence | binding signal (RPM ratio (pull-down/input)) |
| --- | --- |
| GATGATTGTTCTCCCAGCTGATGAATTTTTACCATCGAGTAAACAAATTTTCCTAATCTTTCTGTTCAAGCGCCATCTAC | 0.314 |
| GATGATTGTTCTCCCAGCTGATGAATTGGTAGGTTCGAGTAAACAAATTTTCCTAATCTTTCTGTTCAAGCGCCATCTAC | 0.628 |
| GATGATTGTTCTCCCAGCTGATGAATTGGTCAATTCGAGTAAACAAATTTTCCTAATCTTTCTGTTCAAGCGCCATCTAC | 0.401 |
| GATGATTGTTCTCCCAGCTGATGAATTGTAGGCATCGAGTAAACAAATTTTCCTAATCTTTCTGTTCAAGCGCCATCTAC | 1 |
| GATGATTGTTCTCCCAGCTGATGAATTTACGTAATCGAGTAAACAAATTTTCCTAATCTTTCTGTTCAAGCGCCATCTAC | 1.26 |
| GATGATTGTTCTCCCAGCTGATGAATTGGGCATATCGAGTAAACAAATTTTCCTAATCTTTCTGTTCAAGCGCCATCTAC | 2.06 |
| GATGATTGTTCTCCCAGCTGATGAATTCCCCCGATCGAGTAAACAAATTTTCCTAATCTTTCTGTTCAAGCGCCATCTAC | 0.165 |
| GATGATTGTTCTCCCAGCTGATGAATTTAATCCATCGAGTAAACAAATTTTCCTAATCTTTCTGTTCAAGCGCCATCTAC | 0.269 |
| GATGATTGTTCTCCCAGCTGATGAATTGAAATGTTCGAGTAAACAAATTTTCCTAATCTTTCTGTTCAAGCGCCATCTAC | 0.48 |
| GATGATTGTTCTCCCAGCTGATGAATTTATCTGATCGAGTAAACAAATTTTCCTAATCTTTCTGTTCAAGCGCCATCTAC | 0.374 |
| GATGATTGTTCTCCCAGCTGATGAATTGCATATATCGAGTAAACAAATTTTCCTAATCTTTCTGTTCAAGCGCCATCTAC | 1.46 |
| GATGATTGTTCTCCCAGCTGATGAATTCATTATTTCGAGTAAACAAATTTTCCTAATCTTTCTGTTCAAGCGCCATCTAC | 1.66 |
| GATGATTGTTCTCCCAGCTGATGAATTCGTCCGTTCGAGTAAACAAATTTTCCTAATCTTTCTGTTCAAGCGCCATCTAC | 0.459 |
| GATGATTGTTCTCCCAGCTGATGAATTTGCAAGCTCGAGTAAACAAATTTTCCTAATCTTTCTGTTCAAGCGCCATCTAC | 0.862 |
| GATGATTGTTCTCCCAGCTGATGAATTTAGGCACTCGAGTAAACAAATTTTCCTAATCTTTCTGTTCAAGCGCCATCTAC | 0.691 |
